{
  "source": "PubChem BioAssay AID1986",
  "about": "(Sanford-Burnham Center for Chemical Genomics, 2009)",
  "note": "Some of the results follow. Shown are side measurements of this screen, not its main read-out; they come without a call.",
  "data": [
    {"assay": "inhibitors of HIV fusion peptide binding, primary screen, biochemical, uHTS, fluorescence dequenching (AID 1986)", "conditions": "cell-free peptide binding, 30 min, measured here: repeat confirmation average inhibition, at 18.6 µM, stronger effect = higher value", "units": {"inhibition": "%"}, "values": [
      {"smiles": "CCOc1ccc(NC(=O)c2c[nH]n3c(=O)cc(C4CCN(C(=O)OC(C)(C)C)CC4)nc23)cc1", "inhibition": 56.4},
      {"smiles": "COc1ccccc1/C=C1\\SC(=S)N(CCC(=O)Nc2ccc(C(=O)O)c(O)c2)C1=O", "inhibition": 78.4},
      {"smiles": "O=C(CN1C(=O)/C(=C2\\SC(=S)N(CCS(=O)(=O)O)C2=O)c2ccccc21)Nc1cccc(Br)c1", "inhibition": 80.1},
      {"smiles": "CC(C)S(=O)(=O)C1=NSC2=NC(=O)/C(=C\\c3ccc(OC(=O)c4ccco4)cc3)C(=N)N21", "inhibition": 57.2},
      {"smiles": "N=C1/C(=C\\c2ccc(-c3cccc(C(=O)O)c3)o2)C(=O)N=C2SC=C(c3ccccc3)N12", "inhibition": 78.7},
      {"smiles": "COc1cc(/C=N/Nc2ccc(Cl)c(C(=O)O)c2)ccc1OC(=O)c1ccccc1F", "inhibition": 57.6},
      {"smiles": "COc1ccc(/C=N/NC(=O)c2[nH]c3ccc(Br)cc3c2-c2ccccc2)c(C(=O)O)c1OC", "inhibition": 53},
      {"smiles": "CC(/C=C1\\SC(=S)N(c2ccc(C(=O)O)cc2)C1=O)=C\\c1ccccc1", "inhibition": 62.4},
      {"smiles": "N#C/C(=C\\c1ccc(O)c([N+](=O)[O-])c1)c1nc2ccccc2s1", "inhibition": 67.3},
      {"smiles": "O=C(O)CSc1nc(-c2ccc(Cl)cc2)nc2c1oc1ccccc12", "inhibition": 55.5},
      {"smiles": "CC(C)CCN1C(=O)c2ccc(C(=O)Nc3ccc(Br)cc3C(=O)O)cc2C1=O", "inhibition": 71.2},
      {"smiles": "N#Cc1c(-c2ccccc2)nc(SCc2ccc(Cl)cc2)[nH]c1=O", "inhibition": 59.3},
      {"smiles": "O=C(CCN1C(=O)/C(=C\\c2ccccc2F)SC1=S)Nc1ccc(C(=O)O)c(O)c1", "inhibition": 71.6},
      {"smiles": "COc1cc(/C=N/NC(=O)C(Cc2c[nH]c3ccccc23)NC(=O)OCc2ccccc2)cc([N+](=O)[O-])c1O", "note": "(centres undefined)", "inhibition": 55.3},
      {"smiles": "O=S(=O)(Nc1nc2ccccc2nc1Nc1ccc(N2CCOCC2)cc1)c1cc(Cl)ccc1Cl", "inhibition": 63.8},
      {"smiles": "Cc1cc(Cl)ccc1OC(C)C(=O)Nc1ccc(S(=O)(=O)Nc2cnc3ccccc3n2)cc1", "note": "(centres undefined)", "inhibition": 64.3},
      {"smiles": "CN(C)S(=O)(=O)c1cccc(-c2nn(-c3ccccc3)cc2/C=C2\\SC(=S)N(CC(=O)O)C2=O)c1", "inhibition": 66.2},
      {"smiles": "CSc1ccc(C(c2c(C(=O)O)[nH]c3ccccc23)c2c(C(=O)O)[nH]c3ccccc23)cc1", "inhibition": 78.9},
      {"smiles": "COc1cc(/C=C2/C(=O)NN(c3ccc(C)c(Cl)c3)C2=O)cc([N+](=O)[O-])c1O", "inhibition": 62.9},
      {"smiles": "COc1ccc(C(=O)Nc2ccccc2C(=O)O)cc1NC(=O)C(c1ccccc1)c1ccccc1", "inhibition": 69.9},
      {"smiles": "O=C(O)CN1C(=O)/C(=C\\c2cccc(OCc3ccc(Cl)cc3Cl)c2)SC1=S", "inhibition": 87.2},
      {"smiles": "COc1ccc(-c2nn(-c3ccccc3)cc2/C=C\\C(=O)Nc2ccc(C(=O)O)cc2)cc1", "inhibition": 64.7},
      {"smiles": "COc1cc(NS(=O)(=O)c2ccc(Nc3nc(-c4ccccc4)cs3)cc2)nc(OC)n1", "inhibition": 52.3},
      {"smiles": "O=C(O)c1[nH]c2ccccc2c1C(c1cc(Br)ccc1O)c1c(C(=O)O)[nH]c2ccccc12", "inhibition": 78.3},
      {"smiles": "COc1cc(/C=C2\\C(=N)N3N=C(S(C)(=O)=O)SC3=NC2=O)ccc1OCCOc1ccc(C)cc1", "inhibition": 78.9},
      {"smiles": "COc1ccc(C(=O)/C=C/c2ccc(-c3ccccc3)cc2)cc1CSCC(=O)O", "inhibition": 70.7},
      {"smiles": "O=C(O)c1cc(-c2ccc(/C=C3\\NC(=O)N(c4ccc(Cl)cc4)C3=O)o2)ccc1Cl", "inhibition": 54.9},
      {"smiles": "O=C(O)c1ccccc1N=Nc1c(O)[nH]c2ccc([N+](=O)[O-])cc12", "inhibition": 51.1},
      {"smiles": "O=C(O)c1ccccc1-c1ccccc1C(=O)Nc1ccc(-c2nc3cc(Cl)ccc3o2)cc1", "inhibition": 57.7},
      {"smiles": "COc1cc(/C=C2/SC(=S)N(CC(=O)O)C2=O)ccc1OCC(=O)Nc1ccc(C)c(C)c1", "inhibition": 78.5},
      {"smiles": "Cc1ccc(-c2nc(SCC(=O)Nc3ccccc3OC(F)F)c3c(C)c(C(=O)O)sc3n2)cc1", "inhibition": 73.3},
      {"smiles": "O=C(O)C1Nc2c(cccc2C(F)(F)F)C2C=CCC12", "note": "(centres undefined)", "inhibition": 54.3},
      {"smiles": "CC(C)(C)c1ccc(OCC(=O)NNC(=S)NC(=O)c2ccccc2[N+](=O)[O-])c(Br)c1", "inhibition": 52.8},
      {"smiles": "Cc1noc(NS(=O)(=O)c2ccc(NC(=O)Nc3ccc(Cl)c(Cl)c3)cc2)c1C", "inhibition": 51.7},
      {"smiles": "O=C(O)CN1C(=O)/C(=C\\c2cc(Br)ccc2OCc2ccc(F)cc2)SC1=S", "inhibition": 69.5},
      {"smiles": "COc1cc(/C=C(\\C#N)c2nc3ccccc3s2)cc([N+](=O)[O-])c1O", "inhibition": 76.2},
      {"smiles": "CCOc1ccc(CCNC(=O)c2ccc3c(=O)[nH]c4c(C(=O)NC(C)C)sc(=S)n4c3c2)cc1", "inhibition": 61.5},
      {"smiles": "COc1cc(/C=N/NS(=O)(=O)c2ccc3ccccc3c2)ccc1OCc1ccc(C(=O)O)cc1", "inhibition": 55.6},
      {"smiles": "Cc1cc(Cl)ccc1OC(C)C(=O)Nc1ccc(C(=O)Nc2ccccc2C(=O)O)cc1", "note": "(centres undefined)", "inhibition": 76.8},
      {"smiles": "CCCOc1ccc(C(=O)NNC(=S)NC(=O)c2cc(-c3ccccc3)nc3ccccc23)cc1", "inhibition": 57.6},
      {"smiles": "CC1=NN(c2ccc(C(=O)O)cc2)C(=O)/C1=C\\c1ccc(OC(=O)c2cccs2)cc1", "inhibition": 58.7},
      {"smiles": "CC(C)S(=O)(=O)C1=NSC2=NC(=O)/C(=C\\c3ccc(-c4cccc(C(=O)O)c4)o3)C(=N)N21", "inhibition": 54.2},
      {"smiles": "O=[N+]([O-])c1cccc(S(=O)(=O)Nc2nc3ccccc3nc2Nc2cccc(S(=O)(=O)N3CCCCC3)c2)c1", "inhibition": 68.4},
      {"smiles": "O=C(O)c1ccc(-c2ccc(/C=C3\\NC(=O)N(Cc4ccc(Cl)cc4)C3=O)o2)cc1Cl", "inhibition": 63},
      {"smiles": "CC(/C=C1\\SC(=S)N(C(C(=O)O)c2ccccc2)C1=O)=C\\c1ccccc1", "note": "(centres undefined)", "inhibition": 54.5},
      {"smiles": "COc1ccc(C(=O)COC(=O)c2ccccc2NS(=O)(=O)c2ccc(O)c([N+](=O)[O-])c2)cc1", "inhibition": 61.7},
      {"smiles": "CCOC(=O)c1sc2nc3c(SCCC(=O)O)cc(C(=O)c4cc(OC)ccc4O)cn3c(=O)c2c1C", "inhibition": 64.5},
      {"smiles": "CCc1ccc(/C=C2\\SC(=S)N(CCCC(=O)Nc3ccccc3C(=O)O)C2=O)cc1", "inhibition": 74.8},
      {"smiles": "O=C1/C(=C\\c2ccc(O)c(O)c2)C(c2ccccc2)=NN1c1ccccc1", "inhibition": 59.6},
      {"smiles": "CC(C(=O)Nc1ccc(O)c(C(=O)O)c1)N1C(=O)/C(=C/c2cccs2)SC1=S", "note": "(centres undefined)", "inhibition": 64.7},
      {"smiles": "Cc1ccc(F)c(NC(=O)/C(C#N)=C(\\O)c2ccc(C(C)(C)C)cc2)c1", "inhibition": 53.9},
      {"smiles": "O=C(CN1C(=O)S/C(=C\\C=C\\c2ccccc2)C1=O)Nc1ccccc1C(=O)O", "inhibition": 55},
      {"smiles": "Cc1ccc(NC(=S)NNc2ccc([N+](=O)[O-])cc2S(=O)(=O)Nc2ccccc2C(=O)O)cc1C", "inhibition": 76.6},
      {"smiles": "O=C(O)CCn1cc(/C=C/C(=O)c2ccc(Cl)cc2)c(-c2cccc(Br)c2)n1", "inhibition": 57.6}
    ]}
  ]
}
